Experimental data taken from PMC12184805 (Journal of medicinal chemistry, 2025).

Experiments:
[1] = target: T1, recombinant human heparanase (HPSE) (Homo sapiens, UniProt Q9Y251); test: Heparanase inhibition TR-FRET assay; assay type: biochemical; conditions: fluorescent HS substrate, mean ± SD (n = 3)
T1 sequence (Q9Y251 158-543 limits assumed): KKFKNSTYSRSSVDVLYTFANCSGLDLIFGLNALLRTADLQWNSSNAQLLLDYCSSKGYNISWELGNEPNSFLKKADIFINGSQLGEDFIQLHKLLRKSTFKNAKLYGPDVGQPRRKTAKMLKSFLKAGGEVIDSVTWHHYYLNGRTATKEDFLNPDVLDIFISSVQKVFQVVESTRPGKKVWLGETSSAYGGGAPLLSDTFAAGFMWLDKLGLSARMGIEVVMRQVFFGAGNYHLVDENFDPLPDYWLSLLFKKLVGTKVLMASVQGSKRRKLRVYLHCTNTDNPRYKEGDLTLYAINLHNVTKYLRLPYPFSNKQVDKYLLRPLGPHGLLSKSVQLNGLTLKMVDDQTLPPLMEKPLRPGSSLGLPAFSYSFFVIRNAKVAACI
T1 sequence (Q9Y251 36-109 limits assumed): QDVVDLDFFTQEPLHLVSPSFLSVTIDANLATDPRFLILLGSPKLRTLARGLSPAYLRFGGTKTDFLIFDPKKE

MPC-11 myeloma cells = test: MPC-11 mouse myeloma tumor growth; assay type: in vivo, BALB/c mice; conditions: for tumor growth inhibitor index (TGI): MPC-11 s.c. in BALB/c mice, i.p. treatment, termination day 17
FXa = FXa (Bos taurus, UniProt P00743); test: Factor Xa chromogenic substrate assay; assay type: biochemical; conditions: anticoagulant activity against FXa
[2] = tested on: Human recombinant CXCL4/platelet factor 4 (PF4); test: Platelet factor 4 binding assay; conditions: HPSE vs PF4 (BLI)
U-87 MG cells = test: Matrigel invasion assay; assay type: cell-based, human; conditions: nontoxic ligand concentrations 15–50 μM; 24 h
B16 melanoma cells = test: B16 melanoma experimental metastasis; assay type: in vivo, C57BL/6J mice; conditions: 200 μg per mouse i.p.; day 17; vs PBS control
[3] = target: T2, recombinant human heparanase (Homo sapiens, UniProt Q9Y251); test: Extracellular matrix degradation assay; conditions: 5 μg/mL ligand; HS degradation fragments, peak II
T2 sequence (Q9Y251 36-543): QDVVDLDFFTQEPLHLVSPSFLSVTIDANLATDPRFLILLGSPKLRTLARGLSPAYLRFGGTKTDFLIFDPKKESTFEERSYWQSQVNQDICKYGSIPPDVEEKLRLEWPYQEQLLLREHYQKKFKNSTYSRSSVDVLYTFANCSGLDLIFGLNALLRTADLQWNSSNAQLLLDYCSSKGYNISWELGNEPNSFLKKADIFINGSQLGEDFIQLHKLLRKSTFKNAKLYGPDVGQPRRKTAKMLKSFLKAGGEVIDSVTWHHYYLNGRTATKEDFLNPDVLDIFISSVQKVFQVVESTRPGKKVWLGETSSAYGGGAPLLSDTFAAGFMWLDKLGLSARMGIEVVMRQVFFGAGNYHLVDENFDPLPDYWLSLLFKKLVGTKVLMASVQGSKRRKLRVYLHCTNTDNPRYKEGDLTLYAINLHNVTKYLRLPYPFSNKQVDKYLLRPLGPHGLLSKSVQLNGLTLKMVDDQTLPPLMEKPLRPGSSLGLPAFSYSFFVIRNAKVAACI

U-87 glioblastoma cells = test: WST-1 cell viability assay; conditions: 120 μM, U-87 cells

Question: With “1,2′,2‴,3,6‴-Penta-N-sulfo-paramomycin [Ligand L1]” as the molecule, how does the IC50 [1] read?
Answer: 37.2 ± 1.5 µM

Question: For “1,2′,2‴,3,6‴-Penta-N-sulfo-5″,6′-di-O-sulfo-paramomycin [Ligand L2]”, which IC50 [1] is on record?
Answer: 14.9 ± 1.79 µM

Question: How did the “tumor growth inhibitor index (TGI)” value (MPC-11 myeloma cells) turn out when CC(C)C[C@H](NC(=O)[C@H](Cc1ccccc1)NC(=O)c1cnccn1)B(O)O [bortezomib, reference compound] was run?
Answer: 81.7%

Question: How did the IC50 (FXa) turn out when “1,2′,2‴,3,6‴-Penta-N-sulfo-2″,3′,3‴,4,4′,4‴-hexa-O-(2-naphthylmethyl)-5″,6′-(N-1-naphthyl)-paromomycindicarboxamide [Ligand L17]” was run?
Answer: > 500 µM

Question: What about the “selectivity for HPSE over PF4” value [2] of the same molecule?
Answer: over 100 fold

Question: What about the U-87 cell invasion (U-87 MG cells) of the same molecule?
Answer: significant reduction

Question: And the “tumor growth inhibitor index (TGI)” value (MPC-11 myeloma cells)?
Answer: 83.1%

Question: And the tumor growth (MPC-11 myeloma cells; daily i.p. injections over 16 days, vs untreated control and GPM-2-treated group)?
Answer: significantly reduced tumor growth

Question: What about the lung metastasis (B16 melanoma cells) of the same molecule?
Answer: significant reduction in lung metastasis

Question: And the “amount of released sulfate-labeled material (% CPM)” value [3]?
Answer: 1.32%

Question: What about the cell viability (U-87 glioblastoma cells) of the same molecule?
Answer: 39%

Question: What does the source list for CC(C)CCC[C@@H](C)[C@H]1CC[C@H]2[C@@H]3CC[C@H]4C[C@@H](O[C@@H]5O[C@H](COS(=O)(=O)O)[C@@H](O[C@H]6O[C@H](COS(=O)(=O)O)[C@@H](O[C@H]7O[C@H](COS(=O)(=O)O)[C@@H](O[C@H]8O[C@H](COS(=O)(=O)O)[C@@H](OS(=O)(=O)O)[C@H](OS(=O)(=O)O)[C@H]8OS(=O)(=O)O)[C@H](OS(=O)(=O)O)[C@H]7OS(=O)(=O)O)[C@H](OS(=O)(=O)O)[C@H]6OS(=O)(=O)O)[C@H](OS(=O)(=O)O)[C@H]5OS(=O)(=O)O)CC[C@]4(C)[C@H]3CC[C@]12C [PG545, reference compound]?
Answer: IC50 (FXa): 15.6 µM; cell viability (U-87 glioblastoma cells): 45%

Question: For “1,2′,2‴,3,6‴-Penta-N-sulfo-6′,5″-di-O-sulfo-2″,3′,3‴,4,4′,4‴-hexa-O-(2-naphthylmethyl)-paromomycin [Ligand L11]”, which IC50 [1] is on record?
Answer: 0.0201 ± 0.0013 µM

Question: How did the IC50 [1] turn out when “1,2′,2‴,3,6‴-Penta-N-sulfo-2″,3′,3‴,4,4′,4‴,5″,6′-octa-O-(2-naphthylmethyl)-paromomycin [Ligand L10]” was run?
Answer: 0.0234 ± 0.00391 µM
